In all, about 2,700 sequences were measured (“arbitrary fluorescence units”: median about 4,100, highest 2% from about 54,000 on). The list shows a part of the results.
Molecular target: T1, ETS1 (UniProt P14921)
T1 sequence: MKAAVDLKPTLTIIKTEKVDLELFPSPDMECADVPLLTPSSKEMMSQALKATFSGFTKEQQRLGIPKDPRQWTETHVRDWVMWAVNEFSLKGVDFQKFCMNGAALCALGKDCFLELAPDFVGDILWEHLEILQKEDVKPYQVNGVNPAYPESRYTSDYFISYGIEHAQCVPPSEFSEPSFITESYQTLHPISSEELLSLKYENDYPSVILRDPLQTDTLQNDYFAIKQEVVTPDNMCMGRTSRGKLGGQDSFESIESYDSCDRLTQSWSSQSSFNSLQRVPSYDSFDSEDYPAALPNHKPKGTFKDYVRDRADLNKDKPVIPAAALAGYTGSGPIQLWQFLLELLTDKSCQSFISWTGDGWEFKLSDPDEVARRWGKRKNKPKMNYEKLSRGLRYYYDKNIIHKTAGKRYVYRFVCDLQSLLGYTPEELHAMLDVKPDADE
Assay: ETS1 binding intensity (PBM fluorescence) (arbitrary fluorescence units); higher = stronger binding
Details: ETS1 concentration 10 nM
Protocol: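 gcPBM on wild-type 36-bp genomic probes with two neighbouring ETS1 sites (4-24 bp apart). Recombinant human ETS1 (10 nM) was detected with anti-ETS1 antibody fluorescence. Values are medians over 3 replicate spots. The probes sit in constant array flanks that are not printed.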

Sequence | ETS1 binding intensity
AGAGGTTTCCGCTGTGGGATTGCCTATATCCTGCCC | 16300
TAGCCTCGACATCCTACCTCAACTTCCGCAGTAGCT | 4430
AGCACTCCGGAAACAGCCCTTATGAGGAAACGGCAT | 9720
GCAGCAGGAAACACACACAGACCACAGGATGCATAA | 1690
CCTGAGGACACAGGAAGAGACGGAAGGAGCACCTTG | 1290
AGTTCATCCGCGGCCCTGAGGCCTGTGGGAAACGTA | 233
GGAAGGGGAGGAAGTACGTGCTGCGGAAGGAGGAGA | 1970
GTGAAACCACATCCTGGCTCAGCTTCCTCCCTTTCC | 9520
TGGGGAACAGGAAGTCAGTGGAGGGAAGTTTGTGGG | 11100
AGGGAGTAAAACAGGAAACGGGAAGGCAAGGGAATC | 6530
GTGAGCCATCCTGACTCACTGATTACATCCGGCATT | 2230
GCAGACAGGAAGGCGTGGTGTGGACAGGATGCCCAT | 2720
CAAGCAGGAGGAAGTCAGCACAGAGGAAACAGAGCT | 978
AAGAGCAGTTTGTTTCCTGAGGAAGCTTTTGCGGTT | 484
CACAGAGAACCGGAAGTCCCAGATCCGGTCGGCTCG | 38700
ACCCACGCGGAAGGGGAGGAGGGGTTTCCTGACTGA | 262
ACTTGACATTTCCTGCCTCCTGTTTCCTCATCACTC | 22500
TGTGTGGAGGAAGCGTGGTGAAGAGGAAGTCACAGA | 444

Sequence | ETS1 binding intensity
TAACTGGGCAACAGGAAGACATCCTGCCTCTTGTAC | 2520
AGACAGGAAGTGATCGAAGCCACCAAAGGATGTGTT | 14300
CTTTAAGCCGGAACAGGCAGGGCGGAAGTGCGTCAC | 2940
CAATAGGAGGCCGGAAGCATCGGAAGTCACATGCTG | 10200
CCTAGCCACTTCCGGCGCGCGATTTCCCGTGAAGTC | 45700
CTGTTAGCCAGGATGGTCTCGATTTCCTGACCTCAT | 404
AAGTCAAAGCCACTTCCTTTTCCTGGTCCCCAGTCG | 7570
CTGCGCGGGGCGGAAGCGGCCGGGAAGCCACGTGTC | 3050
CCCTCCCCTTCCTGCCTGCCCTTCTTCCGGGGCACC | 8020
GGGAGGCGGAAAGGGGCGGGACCACTTCCGGCCTAG | 22100
GCACCCGCTTCCTTTCTGCGTGGGCTTCCTTTCTGC | 12700
GAGACTACGGAAGCCCAGTAAGACAGGAAGGGCGGG | 531
TTGTAAGCCAGGATGGTCTCGATTTCCTGACCTCGT | 263
CTATCTTCCTGAATTACATGTGGCCCTCTTCCTGTG | 1900
GGGGTGGTTCCGCTGAGGCGTGGTAGGAAGTGGCTG | 778
TCCGGGCCTTCCTGGGCCCGTCTGAGGAAACTTGCT | 530
TCAGACAGGAAGCAAAAGTCACTGCATCCTGAGCAC | 4490

Reference: the supplement of paper PMC10681739
